Assay results published in patent EP4736885A1, “ANTIBODY-DRUG CONJUGATE AND USE THEREOF” (priority 2023, dated 2025).
Numbering of substitutions follows the chain as printed. Where “and” joins values, the source holds several entries; their conditions need not be identical. Identical values can stand only once.

T1: human B7H3 protein (Homo sapiens, UniProt Q5ZPR3)
T1 construct: His; purchased Beijing ACROBiosystems Co., Ltd
T1 sequence (Q5ZPR3 29-534): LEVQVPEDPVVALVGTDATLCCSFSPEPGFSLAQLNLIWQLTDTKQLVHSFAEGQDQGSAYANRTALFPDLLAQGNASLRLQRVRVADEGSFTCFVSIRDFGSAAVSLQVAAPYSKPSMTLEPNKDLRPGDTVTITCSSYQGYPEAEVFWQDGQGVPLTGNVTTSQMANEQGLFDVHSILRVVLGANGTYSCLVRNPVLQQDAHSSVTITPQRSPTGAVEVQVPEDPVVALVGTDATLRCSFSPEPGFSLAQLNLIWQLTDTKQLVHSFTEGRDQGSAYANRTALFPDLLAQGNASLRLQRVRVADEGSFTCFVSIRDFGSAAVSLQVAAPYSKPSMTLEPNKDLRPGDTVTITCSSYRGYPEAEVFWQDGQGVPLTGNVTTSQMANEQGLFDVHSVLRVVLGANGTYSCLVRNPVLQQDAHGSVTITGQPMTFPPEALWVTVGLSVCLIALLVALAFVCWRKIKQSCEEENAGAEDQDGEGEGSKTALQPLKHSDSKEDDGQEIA

B1: 43A-043 (conjugate)
heavy: QVQLVQSGAEVKKPGASVKVSCKASGYTFTDYFMNWVRQAPGQGLEWMGDVNPKTGSPSYNQKFKGRVTMTRDTSTSTVYMELSSLRSEDTAVYYCARRYGFLYSMDYWGQGTSVTVSSASTKGPSVFPLAPSSKSTSGGTAALGCLVKDYFPEPVTVSWNSGALTSGVHTFPAVLQSSGLYSLSSVVTVPSSSLGTQTYICNVNHKPSNTKVDKRVEPKSCDKTHTCPPCPAPEAAGGPSVFLFPPKPKDTLMISRTPEVTCVVVDVSHEDPEVKFNWYVDGVEVHNAKTKPREEQYNSTYRVVSVLTVLHQDWLNGKEYKCKVSNKALAASIEKTISKAKGQPREPQVYTLPPSREEMTKNQVSLTCLVKGFYPSDIAVEWESNGQPENNYKTTPPVLDSDGSFFLYSKLTVDKSRWQQGNVFSCSVMHEALHNHYTQKSLSLSPGK
light: DIQMTQSPSSLSASVGDRVTITCRASQDISNYLNWYQQKPGKAVKVLIYYTSRLHSGVPSRFSGSGSGTDFTFTISSLQPEDIATYYCQQGNTHPFTFGGGTKVEIKRTVAAPSVFIFPPSDEQLKSGTASVVCLLNNFYPREAKVQWKVDNALQSGNSQESVTEQDSKDSTYSLSSTLTLSKADYEKHKVYACEVTHQGLSSPVTKSFNRGEC
B2: 43A-DXd (conjugate)
heavy: B1 heavy
light: B1 light
B3: 43A-042 (conjugate)
heavy: B1 heavy
light: B1 light
B4: 43B-042 (conjugate)
heavy: B1 heavy with C228S
light: B1 light
B5: 43B-043 (conjugate)
heavy: B1 heavy with C228S
light: B1 light
B6: 43B-045-6 (conjugate)
heavy: B1 heavy with C228S
light: B1 light

Molecular target: T1, human B7H3 protein
Experiment: Antigen-binding activity (ELISA)
Conditions: His-tagged human B7H3 protein coated at 1 µg/mL
Experimental: The His-tagged human B7H3 protein (purchased from Beijing ACROBiosystems Co., Ltd.) was diluted to 1 µg/mL with a coating solution and added to a microplate at 100 µL/well. The microplate was incubated at 4 °C overnight. Then, a blocking solution was added at 100 µL/well to the microplate containing the coating solution. The plate was shaken at room temperature for 2 h and then washed 3 times with a washing buffer. Samples and reference standards were subjected to gradient dilution and then added at 100 µL/well. The plate was shaken at room temperature for 2 h and washed 4 times with the washing buffer. An enzyme-labeled antibody was added. Goat anti-human IgG-HRP was diluted with the sample diluent and then added at 100 µL/well. The plate was shaken at room temperature for 1 h and washed 4 times with the washing buffer. A substrate solution (freshly prepared TMB substrate solution) was added at 100 µL/reaction well for color development. The reaction proceeded at room temperature for 5-10 min. Then, a terminating solution was added at 100 µL/well, and the mixture was gently and well mixed to stop the reaction. The absorbance was measured using a microplate reader at wavelengths of 450 nm/650 nm. Plotting was then performed using four-parameter fitting in software, where the C value in the model represents the half-maximal effective concentration EC50. Using the 43A and 43B antibodies as reference standards, the binding activities of the corresponding antibody-drug conjugates were determined. […] Table 3. Summary of binding activity to human B7H3 protein
With B1 the “EC50” value was 1.09 ng/mL. In the case of B2, the “EC50” value is reported as 1.19 ng/mL. In the case of B3, the “EC50” value is reported as 1.17 ng/mL. In the case of B4, the “EC50” value is reported as 1.16 ng/mL. In the case of B5, the “EC50” value is reported as 1.05 ng/mL.

Test system: human melanoma A375 cells
Experiment: In vitro growth inhibition (resazurin), Example 27
Assay type: cell-based
Conditions: A375 (Table 9)
Experimental: (§1) The target cells were collected and resuspended to form a single-cell suspension, and the cell viability and cell count were determined by trypan blue staining. The cell density was adjusted to 1 × 10^5 cells/mL. The cell suspension was added to a 96-well black flat-bottom cell culture plate at 100 µL/well. The diluted test samples were added to the 96-well black flat-bottom cell culture plate (pre-seeded with cells) at 20 µL/well. […] A resazurin sodium solution (0.03%) was added at 20 µL/well. The plate was then incubated at 37 °C for 3-4 h. Fluorescence values were measured using a microplate reader at 550 nm/610 nm. Plotting was performed using Prism or similar plotting software, and then the half-maximal inhibitory concentration IC50 values of the test samples were calculated by fitting.
In the case of B6, the “IC50” value is reported as 17.06 ng/mL.

Test system: not listed separately
Experiment: Hydrophobicity of antibody-drug conjugates by hydrophobic interaction chromatography
Assay type: physicochemical
Conditions: TSKgel Butyl-NPR column, shorter time = more hydrophilic
Experimental: Hydrophobic interaction chromatography was used to compare the hydrophobicity of 43A-042, 43B-042, 43A-043, 43B-043, and 43A-DXd. Detection was performed on an e2695 high performance liquid chromatograph using a TSKgel Butyl-NPR chromatographic column (4.6 mm × 10 cm, Cat. No. 0042168/TOSOH). Mobile phase A was 1.0 M ammonium sulfate in 25 mM phosphate buffer, and mobile phase B was 25% isopropanol in 75% 25 mM phosphate buffer. The flow rate was 0.8 mL/min; the detection wavelength was 280 nm; the column temperature was 30 °C; the mobile phase gradient was as follows: 100%-0% A for 0-20 min, 0%-0% A for 20-23 min, 0%-100% A for 23-24 min, 100%-100% A for 24-28 min.
For B1, the retention time was 7.130 min. With B2 the retention time was 8.809 min. B3 gave a retention time of 9.189 min. With B4 the retention time was 8.643 min. Work on B5 yielded a retention time of 6.426 min.

Test system: human melanoma A375 cell xenograft tumors
Experiment: Anti-tumor experiment, A375 xenograft, Example 30
Assay type: in vivo, NU/NU mice
Conditions: 2.0 mg/kg, intravenous, single dose
Experimental: (§2) In this experiment, age-appropriate female NU/NU mice were selected to be inoculated with human melanoma A375 cells. When the tumor volume reached about 100-200 mm^3, animals with good tumor growth were selected and evenly divided into groups based on the tumor volume. Table 14. Animal grouping and dosing regimen
(§3) After grouping was completed, administration was performed, and the body weight of the mice was measured. The data were recorded. By measuring the tumor diameters at different time points after administration, the tumor growth was dynamically observed. The tumor volume was calculated using the following formula: Tumor volume (mm^3) = 1/2 × long diameter (mm) × ([shortdiameter(mm)])^2 [formula]
With B6 the “Mean tumor volume on D26 (mm^3)” value was 144.6 ± 90.1 mm^3.

Same assay, conditions: baseline at grouping, 2.0 mg/kg group
For B6, the “Mean tumor volume on D0 (mm^3)” value was 128.9 ± 39.0 mm^3.

Test system: human lung cancer Calu-6 cell xenograft tumors
Experiment: Anti-tumor experiment, Calu-6 xenograft, Example 26
Assay type: in vivo, NOD/SCID mice
Conditions: 3.0 mg/kg, intravenous, single dose, day 25
Experimental: as §2, with “NOD/SCID” for “NU/NU”, “lung cancer Calu-6” for “melanoma A375”, “mm^3, 48” for “mm^3,”, “into 6” for “into”, “7.” for “14.”
as §3
On day 25 after administration, the mice were euthanized by carbon dioxide asphyxiation, and then the tumors were excised and weighed.
In the case of B1, the “Tumor growth inhibition rate (%)” value is reported as 85.2%, the “Tumor volume on D25 (mm^3)” value is reported as 619.6±229.3 mm^3 and the “Tumor weight” value is reported as 0.498 ± 0.189 g. The “Tumor weight inhibition rate (%)” value was 63.6%. For B2, the “Tumor growth inhibition rate (%)” value was 63.3%, the “Tumor volume on D25 (mm^3)” value was 725.4±208.4 mm^3 and the “Tumor weight” value was 0.583 ± 0.153 g. For the same molecule, the “Tumor weight inhibition rate (%)” value was 57.4%. In the case of B3, the “Tumor growth inhibition rate (%)” value is reported as 78.9%, the “Tumor volume on D25 (mm^3)” value is reported as 475.8±194.2 mm^3 and the “Tumor weight” value is reported as 0.389 ± 0.167 g. For the same molecule, the “Tumor weight inhibition rate (%)” value was 71.6%. In the case of B4, the “Tumor growth inhibition rate (%)” value is reported as 91.6%, the “Tumor volume on D25 (mm^3)” value is reported as 273.2±194.2 mm^3 and the “Tumor weight” value is reported as 0.167 ± 0.000 g. The “Tumor weight inhibition rate (%)” value was 84.8%. With B5 the “Tumor growth inhibition rate (%)” value was 69.9%, the “Tumor volume on D25 (mm^3)” value was 376.1±119.3 mm^3 and the “Tumor weight” value was 0.275 ± 0.079 g. The “Tumor weight inhibition rate (%)” value was 79.9%.

Test system: B7H3-positive human melanoma cell strain A375
Experiment: Cell binding activity by flow cytometry
Assay type: cell-based
Conditions: binding to A375 cells, 4 °C 2 h, mean fluorescence intensity
Experimental: The affinity of the anti-B7H3 antibodies 43A and 43B was determined using the B7H3-positive human melanoma cell strain A375, with the M30 antibody used as a positive reference. Each sample was diluted to 15000 ng/mL with a PBS solution containing 2% BSA and then serially diluted across 11 gradients to achieve sample concentrations ranging from 0.014 ng/mL to 15000 ng/mL. A375 cells were taken, centrifuged at 500× g for 5 min, washed 3 times with the PBS solution containing 2% BSA, and incubated with the diluted samples with different concentrations at 4 °C for 2 h. After washing, the cells were incubated with a goat anti-human Alexa Fluor 488 fluorescent dye at 4 °C in the dark for 1 h. After further washing, the cells were resuspended, and the mean fluorescence intensity (MFI) of the cells was measured using an Attune NxT flow cytometer (Thermo Fisher Scientific, Inc.).
B6 gave an EC50 of 37.78 ng/mL.

Test system: human melanoma A375 cells
Experiment: In vitro growth inhibition (resazurin), Example 25
Assay type: cell-based
Conditions: A375, 168±8 h (Tables 5 and 6)
Experimental: as §1, with “100 µL/well. 43A-DXd was used as a reference standard. The diluted” for “100 µL/well. The diluted”, “of the reference standard and the test samples” for “of the test samples”
With B1 the “IC50” value was 22.69 ng/mL. For B2, the “IC50” value was 24.19 ng/mL and 24.29 ng/mL. With B3 the “IC50” value was 9.41 ng/mL. With B4 the “IC50” value was 14.05 ng/mL. With B5 the “IC50” value was 36.78 ng/mL.

Test system: human liver cancer Hep3B xenograft tumors
Experiment: Anti-tumor experiment, Hep3B xenograft, Example 33
Assay type: in vivo, NU/NU mice
Conditions: 2.0 mg/kg, intravenous, single dose
Experimental: as §2, with “liver cancer Hep3B” for “melanoma A375”, “into 3” for “into”, “20.” for “14.”
as §3
In the case of B6, the “Mean tumor volume on D22 (mm^3)” value is reported as 917.5±405.8 mm^3.

Same assay, conditions: 2.0 mg/kg, intravenous, single dose, D22
In the case of B6, the “Tumor growth inhibition (TGI) rate (%)” value is reported as 66.5%.

Same assay, conditions: baseline at grouping, 2.0 mg/kg group
In the case of B6, the “Mean tumor volume on D0 (mm^3)” value is reported as 153.0±57.1 mm^3.
